In the supplement of paper PMC4604168 (melanoma cell lines):
This is one part of the list. Most values come without repeats; read them as rough.

System: G361
Assay: cell count relative to DMSO control; melanoma cells; higher = more viable cells
Settings: library dose: low library concentration; 72 h
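Further: cell number obtained by counting DAPI-stained nuclei in high-throughput microscope images with image analysis software, screen run in 1,536-well plates.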

SMILES | cell count
CC[C@]1(O)C[C@H]2CN(CCc3c([nH]c4ccccc34)[C@@](C(=O)OC)(c3cc4c(cc3OC)N(C=O)[C@H]3[C@@](O)(C(=O)OC)[C@H](OC(C)=O)[C@]5(CC)C=CCN6CC[C@]43[C@@H]65)C2)C1 [vincristine] + Cn1c(=O)n(-c2ccc(C(C)(C)C#N)cc2)c2c3cc(-c4cnc5ccccc5c4)ccc3ncc21 [NVP-BEZ235] (first compound 0.0001 µM, partner dose 0.004 µM) | 88.3%
CC[C@]1(O)C[C@H]2CN(CCc3c([nH]c4ccccc34)[C@@](C(=O)OC)(c3cc4c(cc3OC)N(C=O)[C@H]3[C@@](O)(C(=O)OC)[C@H](OC(C)=O)[C@]5(CC)C=CCN6CC[C@]43[C@@H]65)C2)C1 [vincristine] + CO[C@H]1C[C@@H]2CC[C@@H](C)[C@@](O)(O2)C(=O)C(=O)N2CCCC[C@H]2C(=O)O[C@H]([C@H](C)C[C@@H]2CC[C@@H](OCCO)[C@H](OC)C2)CC(=O)[C@H](C)/C=C(\C)[C@@H](O)[C@@H](OC)C(=O)[C@H](C)C[C@H](C)/C=C/C=C/C=C/1C [everolimus] (first compound 0.0001 µM, partner dose 0.02 µM) | 70.1%
N#CC[C@H](C1CCCC1)n1cc(-c2ncnc3[nH]ccc23)cn1 [ruxolitinib] + CC[C@]1(O)C[C@H]2CN(CCc3c([nH]c4ccccc34)[C@@](C(=O)OC)(c3cc4c(cc3OC)N(C=O)[C@H]3[C@@](O)(C(=O)OC)[C@H](OC(C)=O)[C@]5(CC)C=CCN6CC[C@]43[C@@H]65)C2)C1 [vincristine] (first compound 1 µM, partner dose 0.0001 µM) | 101%
N#CC[C@H](C1CCCC1)n1cc(-c2ncnc3[nH]ccc23)cn1 [ruxolitinib] + O=C(Nc1ccccc1)c1cc([N+](=O)[O-])ccc1Cl [GW9662] (first compound 1 µM, partner dose 2 µM) | 89.3%
N#CC[C@H](C1CCCC1)n1cc(-c2ncnc3[nH]ccc23)cn1 [ruxolitinib] + CC(=O)O[C@@]12CO[C@@H]1C[C@H](O)[C@@]1(C)C(=O)[C@H](O)C3=C(C)[C@@H](OC(=O)[C@H](O)[C@@H](NC(=O)OC(C)(C)C)c4ccccc4)C[C@@](O)([C@@H](OC(=O)c4ccccc4)[C@H]21)C3(C)C [Docetaxel] (first compound 1 µM, partner dose 0.0001 µM) | 31.3%
N#CC[C@H](C1CCCC1)n1cc(-c2ncnc3[nH]ccc23)cn1 [ruxolitinib] + COc1ccc(Cl)c(Nc2nc3ccccc3nc2NS(=O)(=O)c2cccc(NC(=O)C(C)(C)N)c2)c1 [XL147] (first compound 1 µM, partner dose 0.8 µM) | 134%
N#CC[C@H](C1CCCC1)n1cc(-c2ncnc3[nH]ccc23)cn1 [ruxolitinib] + Cc1cn(-c2cc(NC(=O)c3ccc(C)c(Nc4nccc(-c5cccnc5)n4)c3)cc(C(F)(F)F)c2)cn1 [nilotinib] (first compound 1 µM, partner dose 0.2 µM) | 83.4%
CC[C@]1(O)C[C@H]2CN(CCc3c([nH]c4ccccc34)[C@@](C(=O)OC)(c3cc4c(cc3OC)N(C=O)[C@H]3[C@@](O)(C(=O)OC)[C@H](OC(C)=O)[C@]5(CC)C=CCN6CC[C@]43[C@@H]65)C2)C1 [vincristine] + C[C@@H](Oc1cc(-c2cnn(C3CCNCC3)c2)cnc1N)c1c(Cl)ccc(F)c1Cl [Crizotinib] (first compound 0.0001 µM, partner dose 0.2 µM) | 79.6%
N#CC[C@H](C1CCCC1)n1cc(-c2ncnc3[nH]ccc23)cn1 [ruxolitinib] + COc1ccc(C2=N[C@@H](c3ccc(Cl)cc3)[C@@H](c3ccc(Cl)cc3)N2C(=O)N2CCNC(=O)C2)c(OC(C)C)c1 [Nutlin-3] (first compound 1 µM, partner dose 0.1 µM) | 92.6%
N#CC[C@H](C1CCCC1)n1cc(-c2ncnc3[nH]ccc23)cn1 [ruxolitinib] + Cn1sc(=O)n(Cc2ccccc2)c1=O [TDZD-8] (first compound 1 µM, partner dose 0.4 µM) | 113%
CC[C@]1(O)C[C@H]2CN(CCc3c([nH]c4ccccc34)[C@@](C(=O)OC)(c3cc4c(cc3OC)N(C=O)[C@H]3[C@@](O)(C(=O)OC)[C@H](OC(C)=O)[C@]5(CC)C=CCN6CC[C@]43[C@@H]65)C2)C1 [vincristine] + O=C(O)[C@@H]1[O][Sb](=[O])([O][Sb]2(=[O])[O][C@H]([C@H](O)CO)[C@H](O)[C@H](C(=O)O)[O]2)[O][C@H]([C@H](O)CO)[C@@H]1O [stibogluconate] (first compound 0.0001 µM, partner dose 2 µM) | 116%
N#CC[C@H](C1CCCC1)n1cc(-c2ncnc3[nH]ccc23)cn1 [ruxolitinib] + Nc1cccc2c1CN(C1CCC(=O)NC1=O)C2=O [lenalidomide] (first compound 1 µM, partner dose 1 µM) | 92.1%
CC[C@]1(O)C[C@H]2CN(CCc3c([nH]c4ccccc34)[C@@](C(=O)OC)(c3cc4c(cc3OC)N(C=O)[C@H]3[C@@](O)(C(=O)OC)[C@H](OC(C)=O)[C@]5(CC)C=CCN6CC[C@]43[C@@H]65)C2)C1 [vincristine] + C#Cc1cccc(Nc2ncnc3cc(OCCOC)c(OCCOC)cc23)c1 [erlotinib] (first compound 0.0001 µM, partner dose 0.8 µM) | 77.8%
CC[C@]1(O)C[C@H]2CN(CCc3c([nH]c4ccccc34)[C@@](C(=O)OC)(c3cc4c(cc3OC)N(C=O)[C@H]3[C@@](O)(C(=O)OC)[C@H](OC(C)=O)[C@]5(CC)C=CCN6CC[C@]43[C@@H]65)C2)C1 [vincristine] + Nc1cccc2c1CN(C1CCC(=O)NC1=O)C2=O [lenalidomide] (first compound 0.0001 µM, partner dose 1 µM) | 95.6%
N#CC[C@H](C1CCCC1)n1cc(-c2ncnc3[nH]ccc23)cn1 [ruxolitinib] + NC1(c2ccc(-c3nc4ccn5c(=O)[nH]nc5c4cc3-c3ccccc3)cc2)CCC1 [MK2206] (first compound 1 µM, partner dose 0.4 µM) | 96.2%
N#CC[C@H](C1CCCC1)n1cc(-c2ncnc3[nH]ccc23)cn1 [ruxolitinib] + C#Cc1cccc(Nc2ncnc3cc(OCCOC)c(OCCOC)cc23)c1 [erlotinib] (first compound 1 µM, partner dose 0.8 µM) | 93.5%
Cc1cc(Nc2cc(N3CCN(C)CC3)nc(Sc3ccc(NC(=O)C4CC4)cc3)n2)n[nH]1 [Tozasertib] + O=c1cc(-c2cccc3c2Sc2ccccc2S3)oc(N2CCOCC2)c1 [KU55933] (first compound 0.006 µM, partner dose 1 µM) | 93.5%
CC[C@]1(O)C[C@H]2CN(CCc3c([nH]c4ccccc34)[C@@](C(=O)OC)(c3cc4c(cc3OC)N(C=O)[C@H]3[C@@](O)(C(=O)OC)[C@H](OC(C)=O)[C@]5(CC)C=CCN6CC[C@]43[C@@H]65)C2)C1 [vincristine] + NC(=O)c1ccc(N(C(N)=O)c2c(F)cccc2F)nc1-c1ccc(F)cc1F [VX702] (first compound 0.0001 µM, partner dose 0.4 µM) | 90%
CC[C@]1(O)C[C@H]2CN(CCc3c([nH]c4ccccc34)[C@@](C(=O)OC)(c3cc4c(cc3OC)N(C=O)[C@H]3[C@@](O)(C(=O)OC)[C@H](OC(C)=O)[C@]5(CC)C=CCN6CC[C@]43[C@@H]65)C2)C1 [vincristine] + CC(=O)c1c(C)c2cnc(Nc3ccc(N4CCNCC4)cn3)nc2n(C2CCCC2)c1=O [palbociclib] (first compound 0.0001 µM, partner dose 0.04 µM) | 85.7%
Cc1cc(Nc2cc(N3CCN(C)CC3)nc(Sc3ccc(NC(=O)C4CC4)cc3)n2)n[nH]1 [Tozasertib] + N#CC[C@H](C1CCCC1)n1cc(-c2ncnc3[nH]ccc23)cn1 [ruxolitinib] (first compound 0.006 µM, partner dose 1 µM) | 85.3%
Cc1cc(Nc2cc(N3CCN(C)CC3)nc(Sc3ccc(NC(=O)C4CC4)cc3)n2)n[nH]1 [Tozasertib] + NC(=O)c1ccc(N(C(N)=O)c2c(F)cccc2F)nc1-c1ccc(F)cc1F [VX702] (first compound 0.006 µM, partner dose 0.4 µM) | 79.5%
CC[C@]1(O)C[C@H]2CN(CCc3c([nH]c4ccccc34)[C@@](C(=O)OC)(c3cc4c(cc3OC)N(C=O)[C@H]3[C@@](O)(C(=O)OC)[C@H](OC(C)=O)[C@]5(CC)C=CCN6CC[C@]43[C@@H]65)C2)C1 [vincristine] + C=C(c1ccc(C(=O)O)cc1)c1cc2c(cc1C)C(C)(C)CCC2(C)C [Bexarotene] (first compound 0.0001 µM, partner dose 2 µM) | 89.6%
N#CC[C@H](C1CCCC1)n1cc(-c2ncnc3[nH]ccc23)cn1 [ruxolitinib] + Clc1ccc(Nc2nnc(Cc3ccncc3)c3ccccc23)cc1 [vatalanib] (first compound 1 µM, partner dose 2 µM) | 95.9%
Cc1cc(Nc2cc(N3CCN(C)CC3)nc(Sc3ccc(NC(=O)C4CC4)cc3)n2)n[nH]1 [Tozasertib] + CN(NC(=O)CC(=O)NN(C)C(=S)c1ccccc1)C(=S)c1ccccc1 [STA4783] (first compound 0.006 µM, partner dose 0.006 µM) | 79.4%
